PubChem BioAssay AID686979 (National Center for Advancing Translational Sciences (NCATS), 2013)
“And” between values parts separate entries of the source, which are not always exact repeats. Equal values may be shown once. The whole screen tested about 420,000 compounds, of which about 50,000 (12%) were called active. This list was built around the results that the source calls inconclusive (neither active nor inactive); the mix of calls is not that of the screen. Calls come from the whole dose curve; as a rule, active = well fitted inhibition curve with a large enough effect; inconclusive = small, poorly fitted or top-dose-only effect; inactive = flat fitted curve, though single readings scatter. No potency is given beside an inconclusive call; the fits are too rough.

assay: qHTS for Inhibitors of human tyrosyl-DNA phosphodiesterase 1 (TDP1): qHTS in cells in presence of CPT; settings: chicken DT40 Tdp1-/-;hTDP1 cells + 20 nM CPT, ATP luminescence, 48 h; activity change, negative = growth inhibition: at 46.2 µM (top of the series); note: nearly all actives have a fitted effect of over 55% in size
Outline: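 Chicken DT40 Tdp1-/- cells stably complemented with human TDP1 were seeded at 400 cells/well in medium containing 20 nM camptothecin, exposed to pin-transferred compounds, and grown at 37 °C for at least 48 hr. Viability was read as ATP luminescence.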
% is set by controls: 0 for no effect and ±100 for the full control effect; potency is the fitted concentration of half-maximal effect; tags give direction and shape of the fitted curve.

| Structure (SMILES) | activity change, negative = growth inhibition | Potency |
| --- | --- | --- |
| CCOC(=O)CCCNC(=O)COC(=O)c1ccc(O)cc1 | inactive: -9.02% |  |
| C/C=C/c1ccc(OCc2cc(=O)n3cc(C)ccc3n2)c(OC)c1 |  | inconclusive [inhibitor, single point] |
| COc1ccc(Cl)cc1NC(=S)N(Cc1cccnc1)Cc1ccco1 |  | inconclusive [inhibitor, single point] |
| Cc1ccc(-c2nc(CCNC(=O)c3ccco3)cs2)cc1 | inactive: 2.12% |  |
| Clc1ccc2nc(COc3ccccc3)[nH]c2c1 |  | inconclusive [inhibitor, single point] |
| CCOC(=O)c1ccc(Nc2ncnc3ccccc23)cc1 |  | inconclusive [inhibitor, single point] |
| O=C(CCCCn1c(=O)c2ccccc2n(CC(=O)Nc2cccc(C(F)(F)F)c2)c1=O)NCc1ccc2c(c1)OCO2 |  | active: 18.4 µM |
| CCc1nn2c(-c3ccccc3OC)ccnc2c1-c1ccccc1 |  | inconclusive [inhibitor, single point] |
| CN1C(=O)N(C)C2C1N(CN1CCCCC1)C(=O)N2CN1CCCCC1 (stereo unspecified) |  | inconclusive [inhibitor, single point] |
| N#Cc1nc(-c2ccc(OCc3ccccc3Cl)cc2)oc1N1CCCCCC1 |  | inconclusive [inhibitor, single point] |
| Cc1c(Cl)cccc1NC(=O)Cn1c(=O)n(Cc2ccco2)c(=O)c2sc3ccccc3c21 |  | inconclusive [inhibitor, full curve, poor fit] |
| Cc1ccc(NC(=O)c2cccc3c2C(=O)N(C2CCCCC2)C3)c(Cl)c1 |  | active: 18.4 µM |
| OCC[C@@H]1C[C@H](O)[C@@H](O)[C@]2(OCc3ccc4ccccc4c32)O1 | inactive: 5.44% |  |
| CCN1/C(=C2\C(=O)N(C)C(=S)N2c2ccccc2)C=Cc2ccccc21 |  | inconclusive [inhibitor, single point] |
| CC1CCCCC1NC(=S)Nc1ccc(SC(F)F)cc1 (stereo unspecified) |  | inconclusive [inhibitor, single point] |
| COc1ccc(S(=O)Cc2ccc(C(=O)N3CCN(c4cccc(C)c4C)CC3)o2)cc1 (stereo unspecified) |  | active: 3.66 µM and active: 580 nM |
| Cc1c(C(=O)NCc2ccc(Cl)cc2)sc2nc3n(c(=O)c12)CCCCC3 |  | inconclusive [inhibitor, single point] |
| Cc1ccc(-n2cccc2C(=S)N=P(N(C)C)(N(C)C)N(C)C)cc1 |  | active: 2.06 µM |
| N#CC1=CC2CN(Cc3ccccc3)C1C1C(=O)N(c3ccccc3)C(=O)C21 (stereo unspecified) |  | inconclusive [inhibitor, single point] |
| CC(=O)c1ccc(NC(=O)C(C)Nc2ccc(Cl)cc2)cc1 (stereo unspecified) | inconclusive: -33.6% [inhibitor] |  |
| COc1ccccc1CNC(=O)C(Cc1ccccc1)NC(=O)c1ccccc1 (stereo unspecified) |  | inconclusive [inhibitor, partial curve, poor fit] |
| O=C(Cc1ccccc1)Nc1ccc(C(=O)NCC2COc3ccccc3O2)cc1 (stereo unspecified) | inactive: 9.48% |  |
| CCOC(=O)C(=O)NCC(c1cccs1)S(=O)(=O)c1ccc(Cl)cc1 (stereo unspecified) | inactive: -3.79% |  |
| COc1ccc(-c2nc(CSc3nncn4c3cc3oc(C)cc34)c(C)o2)cc1 |  | inconclusive [inhibitor, single point] |

| Structure (SMILES) | activity change, negative = growth inhibition | Potency |
| --- | --- | --- |
| COc1ccccc1N(C)c1cc2c(c3c1ccn3C)C1CCC2C1 (stereo unspecified) |  | inconclusive [inhibitor, single point] |
| O=C(CCCN1C(=O)c2cccc3cccc(c23)C1=O)NC1CCS(=O)(=O)C1 (stereo unspecified) | inactive: -2.37% |  |
| CN(C)CC#Cc1cncc(C(=O)NNC(=O)Nc2ccc(Cl)cc2)c1 | inactive: 3.78% |  |
| O=C(NCCc1ccccc1)C(=O)NCC(c1ccco1)S(=O)(=O)c1cccs1 (stereo unspecified) |  | inconclusive [inhibitor, partial curve] |
| CC1(C(=O)O)CCC(C(=O)Nc2cccc(F)c2)C1(C)C (stereo unspecified) | inactive: 19.7% |  |
| Cc1ccc(Cl)cc1NC(=O)COC(=O)CC(C)(C)CC1=NS(=O)(=O)c2ccccc2N1 |  | active: 18.4 µM |
| COc1ccc(CCNC(=O)C(=O)NCC2CCCN2S(=O)(=O)c2cccs2)cc1OC (stereo unspecified) |  | inconclusive [inhibitor, single point] |
| CC(=O)c1ccccc1Oc1cc(NN2CCCCC2)c([N+](=O)[O-])cc1[N+](=O)[O-] |  | inconclusive [inhibitor, single point] |
| COc1ccc2nc(NC(=O)c3ccc(NS(=O)(=O)c4cccs4)cc3)sc2c1 |  | inconclusive [inhibitor, single point] |
| c1csc(CNc2ncnc3nc[nH]c23)c1 |  | inconclusive [inhibitor, single point] |
| Clc1cccc(Cl)c1CO/N=C/c1c(-c2ccccc2)nc2n1CCS2 |  | active: 18.4 µM |
| O=C(CN1C(=O)/C(=C/c2cccc(Br)c2)SC1=S)NC1=NCCS1 | inactive: 19.1% |  |
| O=C(N/N=C/c1ccc(OC(=O)c2ccco2)cc1)c1ccc[n+]([O-])c1 | inactive: -6.67% |  |
| CSc1ccccc1C(=O)Nc1ccccc1C(=O)NC(C)C |  | active: 23.1 µM |
| COc1ccccc1N1CCN(/N=C/c2ccc(O)c(O)c2)CC1 |  | active: 18.4 µM |
| CC(C)c1cc(Br)ccc1OCCCN1C(=O)NC(C)(C)C1=O |  | inconclusive [inhibitor, single point] |
| Cc1ccnc(NC(=S)N2CCN(c3cccc(C(F)(F)F)c3)CC2)c1 |  | inconclusive [inhibitor, single point] |
| CCOC(=O)c1ccccc1NC(=O)CN1CCCN(Cc2cc(C)ccc2C)S1(=O)=O |  | active: 20.6 µM |
| COc1ccc(OC)c(CCNC(=O)c2ccc3c(c2)c(C)c(C)n3Cc2ccccc2)c1 |  | active: 16.4 µM |
| COc1ccc(C(=O)OCC(=O)NC2CCCC2)c(OC)c1 |  | inconclusive [inhibitor, single point] |
| Cc1ccc(-n2ncc3c(=O)n(CC(=O)NCc4ccco4)cnc32)cc1C |  | active: 10.3 µM |
| Cc1ccc(/C=N/n2c(-c3ccncc3)n[nH]c2=S)cc1 | inactive: -19.2% |  |
| O=C1C2C3C=CC(C4CC34)C2C(=O)N1/N=C/c1ccc(-c2ccc(F)cc2[N+](=O)[O-])o1 (stereo unspecified) |  | inconclusive [inhibitor, single point] |
| CCN1C(=O)CC(CC(=O)N2CCC(c3nc4ccc(F)cc4[nH]3)CC2)(c2ccccc2C)C1=O (stereo unspecified) |  | inconclusive [inhibitor, single point] |

| Structure (SMILES) | activity change, negative = growth inhibition | Potency |
| --- | --- | --- |
| COc1ccc(OC)c(C(C(=O)NC2CCCCC2)N(C(=O)c2snc(C(N)=O)c2N)c2ccccc2OC)c1 (stereo unspecified) |  | inconclusive [inhibitor, single point] |
| COc1ccc(CCNC(=S)NC(=O)c2ccc(Br)cc2)cc1OC |  | inconclusive [inhibitor, partial curve] |
| C=CCn1c(COc2ccccc2F)nnc1SCC(=O)c1c[nH]c2ccccc12 |  | active: 25.9 µM |
| O=C(CCc1ccc(S(=O)(=O)NC2CCCCC2)cc1)N(Cc1ccccc1)Cc1ccccc1 |  | inconclusive [inhibitor, single point] |
| Cc1ccc(C(=O)N2CCC3CC2c2cc(-c4ccc5c(c4)OCO5)ccc23)cc1 (stereo unspecified) |  | active: 16.4 µM |
| C=C(C)c1cccc(C(C)(C)NC(=O)Nc2nnc(C(C)C)s2)c1 |  | inconclusive [inhibitor, single point] |
| CCOC(=O)c1[nH]c2ccccc2c1NC(=O)c1ccccc1F |  | inconclusive [inhibitor, single point] |
| Cc1ccc(/C=C2/NC(=O)N(Cc3ccccc3F)C2=O)o1 |  | inconclusive [inhibitor, single point] |
| COc1ccc(N2CCN(S(=O)(=O)CCNC(=O)C3CCCCC3)CC2)cc1 |  | inconclusive [inhibitor, single point] |
| Cc1oc2ncnc(N3CCCCC3)c2c1C(=O)NCC1CCN(Cc2cccc(F)c2)CC1 | inconclusive: -34.6% [inhibitor] |  |
| S=C1N(c2ccccc2)CN(C2CCCCC2)CN1c1ccccc1 | inconclusive: -33.5% [inhibitor] |  |
| Cc1ccc(-c2csc3nc[nH]c(=S)c23)cc1C |  | active: 7.31 µM |
| Cc1ncsc1C(=O)Nc1nc2c(s1)CC(C)CC2 (stereo unspecified) |  | inconclusive [inhibitor, single point] |
| CC(C)c1ccc(CNc2ccc3c(c2)ncn3C)cc1 |  | active: 23.1 µM |
| O=C(O)c1ccc(/C=C/c2nc3sc4c(c3c(=O)[nH]2)CCC4)cc1 | inactive: 5.52% |  |
| Cc1cc(C)n(-c2ccc(C(=O)Nc3ccc(C)c(S(=O)(=O)N4CCOCC4)c3)cc2)n1 |  | inconclusive [inhibitor, single point] |
| CCOC(=O)c1[nH]c(C)c(C(=O)OCC(=O)N(C)C2CCS(=O)(=O)C2)c1C (stereo unspecified) | inactive: 9.62% |  |
| COC(=O)c1sc(NC(=O)C2c3ccccc3Oc3ccccc32)c(C(=O)OC)c1C |  | inconclusive [inhibitor, single point] |
| O=S(=O)(c1ccccc1C(F)(F)F)N1CCN(c2nc(-c3ccccc3)nc3ccccc23)CC1 |  | inconclusive [inhibitor, single point] |
| Cc1ccc(S(=O)(=O)NCCC(=O)NCCc2ccc(S(N)(=O)=O)cc2)cc1C |  | active: 3.26 µM |
| Cc1ccc(C(=O)Nc2ccc(C(=O)O)cc2)cc1S(=O)(=O)Nc1ccccc1 | inactive: 0.932% |  |
| COc1cccc2c1cc1c(=O)n(CC(=O)N3CCCCC3)nc(C)n12 | inactive: -0.614% |  |
| Cc1nc(CNS(=O)(=O)c2cc(C)c(C)cc2C)cs1 | inactive: 3.72% |  |
